Source: PubChem BioAssay AID504466 (National Center for Advancing Translational Sciences (NCATS), 2011)
In all, about 330,000 compounds went through this assay and about 4,200 (1.3%) were called active. The shares of active, inactive and inconclusive entries below differ from those in the screen. Calls follow the shape of the dose curve; as a rule, active = well fitted activation curve with a large enough effect; inconclusive = small, poorly fitted or top-dose-only effect; inactive = no such curve, though single readings can be large or run the other way. Potencies beside an inconclusive call are fits to weak or partial responses and may not hold up.
Potency is read from the fitted curve at half-maximal effect; tags tell the direction and shape of the fitted curve.

Test: qHTS screen for small molecules that induce genotoxicity in human embryonic kidney (HEK293T) cells expressing luciferase-tagged ELG1; also: nearly all actives have a fitted effect of over 60% in size; as to activity change, positive = activation: % of control where 0% means no effect
Details: HEK293T ELG1-luciferase reporter, luminescence, 16 h; series mostly up to 46 µM; activity change, positive = activation: at the top concentration
How it was run: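 HEK293T cells expressing luciferase-tagged ELG1 were treated with compound or DMSO for 16 hr at 37°C. Luciferase activity was then read after 30 min with ONE-Glo at room temperature; rising signal flags genetic stress.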
With O=C(N/C(=N\O)c1ccccc1)Nc1ccc(Cl)cc1 the Potency was inconclusive: 25.9 µM [activator, partial curve, poor fit].
In the case of O=C(NCc1cc(C(F)(F)F)cc(C(F)(F)F)c1)C1CC(c2ccccc2C(F)(F)F)=NO1 (stereo not given), the “activity change, positive = activation” value is reported as inactive: -1.59%.
With O=C(/C=C/c1ccccc1Cl)N(Cc1cccs1)C1CCS(=O)(=O)C1 (stereo not given) the “activity change, positive = activation” value was inactive: -7.54%.
For CCN(CC)Cc1nc2c(c(=O)[nH]1)C1(CCCCC1)Cc1ccccc1-2, the Potency was inconclusive: 23.1 µM [activator, partial curve, poor fit].
For CC(C)COc1ccc(C(=O)OCCN2CCOCC2)cc1, the Potency was inconclusive: 20.6 µM [activator, single point].
With Cc1[nH]c2ccc(C(=O)OCCN(C)C)cc2c1C the Potency was inconclusive: 25.9 µM [activator, partial curve, poor fit].
For COc1cccc(NC(=O)COC(=O)c2c(C)nn(-c3ccccc3)c2C)c1, the “activity change, positive = activation” value was inactive: -3.16%.
In the case of CCCN1C(=O)/C(=C/c2ccc(N3CCOCC3)cc2)NC1=S, the “activity change, positive = activation” value is reported as inactive: -3.53%.
With COc1ccccc1/C=C\C(=O)NCC(=O)N/N=C/c1cccc(OC)c1O the Potency was inconclusive: 23.1 µM [activator, single point].
In the case of CC(C)(C)c1ccc(OCC(=O)NCc2ccco2)c(Br)c1, the Potency is reported as inconclusive: 23.1 µM [activator, partial curve, poor fit].
For CSCCC(NS(=O)(=O)c1ccc(C)cc1)C(=O)N1CCN(S(=O)(=O)c2ccc(F)cc2)CC1 (stereo not given), the “activity change, positive = activation” value was inactive: -2.51%.
For Cc1csc2nc(CSc3nc4ccccc4o3)c(Br)n12, the Potency was active: 2.91 µM.
With COC(=O)CSc1nc(NCc2ccccc2)nc(N(C)C)n1 the Potency was inconclusive: 29.1 µM [activator, single point].
For Cc1ccc2c(c1)N(CCC(=O)NCCN1CCOCC1)C(=O)CO2, the “activity change, positive = activation” value was inactive: -1.07%.
For Cc1onc(-c2ccccc2Cl)c1C(=O)NC(=S)NCC(=O)c1ccccc1, the Potency was inconclusive: 23.1 µM [activator, partial curve, poor fit].
With CCCCC(=O)N/N=C/c1ccc(Sc2cccc3cccnc23)o1 the “activity change, positive = activation” value was inactive: -5.24%.
For COc1ccc(-c2nc3ccc(N4CCN(C)CC4)cc3c(=O)[nH]2)cc1, the Potency was inconclusive: 16.4 µM [activator, partial curve, poor fit].
In the case of COC(=O)c1c(NC(=O)COC(=O)c2ccccn2)sc(C)c1C, the Potency is reported as inconclusive: 16.4 µM [activator, partial curve, poor fit].
For CCN1CCN(c2ccc(S(=O)(=O)N3CCCCC3)cc2NC(=O)/C=C/c2cc(OC)ccc2OC)CC1, the Potency was inconclusive: 29.1 µM [activator, single point].
In the case of N#Cc1ccc(C#Cc2ccc3oc4ccccc4c(=O)c3c2)cc1, the “activity change, positive = activation” value is reported as inactive: 1.3%.
In the case of Cc1ccc(C(=O)Nc2nnc(-c3ccco3)o2)cc1, the Potency is reported as inconclusive: 11.6 µM [activator, partial curve].
For CC(=O)c1cccc(NC(=O)c2ccc(NS(=O)(=O)c3c(C)noc3C)cc2)c1, the “activity change, positive = activation” value was inactive: 5.41%.
For CCC(CO)Nc1ncnc2c1cnn2-c1ccc(OC)cc1 (stereo not given), the Potency was active: 2.59 µM.
With Cc1cc(C(=O)Nc2sc(C)c(-c3ccc(F)cc3)c2C(N)=O)no1 the Potency was inconclusive: 3.66 µM [activator, full curve].
With Cc1cccc(C)c1OCC(=O)Nc1ccc2c(c1)OCCO2 the Potency was inconclusive: 23.1 µM [activator, single point].
With Cc1cc(C)n(Cc2cccc(C(=O)N/N=C/c3ccncc3)c2)n1 the “activity change, positive = activation” value was inactive: 1.28%.
For CCOC(=O)N1CCN(C(=O)CCCn2c(=S)[nH]c3ccc(Br)cc3c2=O)CC1, the “activity change, positive = activation” value was inactive: -19.3%.
In the case of COc1ccc2c(c1)C1=NN(/C(C)=C/C(C)=O)C(c3ccc(F)cc3)C1CC2 (stereo not given), the Potency is reported as inconclusive: 20.6 µM [activator, partial curve, poor fit].
With CCOC(CNC(=O)c1nnc(Cc2cc(OC)c(OC)c(OC)c2)o1)OCC the Potency was inconclusive: 25.9 µM [activator, partial curve, poor fit].
For CC1CCN(c2ccc(-c3cccs3)nn2)CC1, the Potency was active: 0.231 µM.
In the case of Nc1nc2nc(-c3cccs3)cc(C(F)(F)F)n2n1, the Potency is reported as inconclusive: 20.6 µM [activator, partial curve, poor fit].
For Cn1c(SCc2cccc(Br)c2)nnc1-c1ccncc1, the “activity change, positive = activation” value was inactive: -0.308%.
For COCCCNC(=O)CSc1nc2cc(S(=O)(=O)N3CCCCC3)ccc2o1, the “activity change, positive = activation” value was inactive: -0.0604%.
With CC(C)COc1ccc(-c2nnc(-c3ccco3)o2)cc1 the Potency was inconclusive: 1.41 µM [activator, full curve, poor fit].
With Cc1cc(C(=O)N/N=C/c2cc(Br)ccc2OC(=O)c2ccc(Br)cc2)n[nH]1 the Potency was inconclusive: 32.6 µM [activator, partial curve, poor fit].
With CC1CCc2c(sc3nc4n(c(=O)c23)CCS4)C1 (stereo not given) the Potency was inconclusive: 18.4 µM [activator, single point].
In the case of Cc1ccc(C(=O)Nc2ccc3nccnc3c2)cc1, the Potency is reported as inconclusive: 0.92 µM [activator, partial curve].
In the case of COc1ccc(C(OCC(O)CN2CCC(O)CC2)c2ccc(OC)cc2)cc1 (stereo not given), the “activity change, positive = activation” value is reported as inactive: 5.77%.
With CCCOc1ccc(/C=C2\SC(N)=NC2=O)cc1OC the Potency was inconclusive: 23.1 µM [activator, partial curve, poor fit].
With O=c1oc2ccccc2c2c1C(c1ccc(Cl)cc1)Nc1ccc3ccccc3c1-2 (stereo not given) the Potency was inconclusive: 29.1 µM [activator, partial curve, poor fit].
For CC(C)c1ccc(-c2cc(C(=O)NN3CCN(C)CC3)c3ccccc3n2)cc1, the Potency was inconclusive: 8.2 µM [activator, partial curve, poor fit].
With Cn1cccc1C(=O)OCc1cc(Cl)cc2c1OCOC2 the Potency was inconclusive: 13 µM [activator, partial curve, poor fit].
For Cc1ccnc(NC(=O)c2ccc(Cl)c(NC(=O)CCc3ccccc3)c2)c1, the “activity change, positive = activation” value was inactive: -7.09%.
In the case of Cc1cc(NC(=O)c2ccc(-c3ccccc3F)o2)no1, the Potency is reported as inconclusive: 10.3 µM [activator, partial curve, poor fit].
In the case of Cc1cccc(N/C=C/C(=O)c2ccc(Cl)cc2)c1, the Potency is reported as inconclusive: 2.59 µM [activator, full curve].
